Over roughly 33,000 sequences, “E-score (-0.5 to 0.5)” has its median near -0.035; the highest 2% begin near 0.34. The list shows a part of the results.
target: T1, Mot3 (UniProt P54785); assay: PBM E-score (8-mer binding enrichment) (E-score (-0.5 to 0.5)); higher = stronger / more preferred TF binding; most listed sequences are background and not binding sites; settings: protein concentration: 200 nM; construct: GST-full length
T1 sequence: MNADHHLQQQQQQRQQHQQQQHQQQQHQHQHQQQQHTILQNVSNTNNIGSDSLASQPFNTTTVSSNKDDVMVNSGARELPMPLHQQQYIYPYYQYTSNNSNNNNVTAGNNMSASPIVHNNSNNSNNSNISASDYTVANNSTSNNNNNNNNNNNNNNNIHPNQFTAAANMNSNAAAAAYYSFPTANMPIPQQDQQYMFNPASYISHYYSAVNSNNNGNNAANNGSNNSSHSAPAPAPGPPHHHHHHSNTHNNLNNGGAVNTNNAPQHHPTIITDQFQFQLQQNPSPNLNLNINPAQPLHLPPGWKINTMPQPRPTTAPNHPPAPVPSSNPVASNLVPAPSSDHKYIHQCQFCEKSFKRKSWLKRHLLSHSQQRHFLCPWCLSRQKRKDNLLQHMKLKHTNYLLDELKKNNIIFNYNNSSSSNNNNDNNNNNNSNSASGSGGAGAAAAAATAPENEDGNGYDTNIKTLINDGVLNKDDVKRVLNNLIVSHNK
Outline: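 Detection of bound protein used fluorescent anti-GST, with scans normalised by masliner. The proteins were GST-tagged yeast transcription factors applied at about 100-200 nM to universal all-10-mer Agilent arrays made double-stranded by primer extension. Each ungapped eight-base word, pooled with its reverse complement, was scored with an E-score from the Universal PBM Analysis Suite.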

Row | Sequence | PBM E-score
1 | ACATTCGT | 0.126
2 | AGTATCGG | -0.224
3 | ATGATTAA | 0.045
4 | TCACACGA | 0.24
5 | ACAGACTG | -0.0643
6 | GAAGCGAA | 0.0121
7 | TACACTGA | 0.226
8 | GCCCTGAC | -0.0113
9 | GACGGTAA | -0.126
10 | AGACGTCG | -0.131
11 | CACCTATA | 0.107
12 | ATCGGCCG | -0.282
13 | ACAAAGGA | 0.167
14 | CTCCAATA | -0.0656
15 | CAATTAGG | 0.149
16 | AAAGGACA | 0.0482
17 | AGAAAACA | 0.181
18 | CGGAAACC | -0.352
19 | ACAAATGC | 0.0928
20 | GTCATGGA | -0.179
21 | TAGCCGCA | -0.238
22 | CCCTCAAA | -0.162
23 | CACTGAGC | 0.0343
24 | GTGAGAAC | -0.0713
25 | AGCAACCC | -0.302

Row | Sequence | PBM E-score
26 | AGGGATCA | -0.0433
27 | ATTAATTC | 0.119
28 | GTAAAGAC | 0.245
29 | AACGGGGT | -0.194
30 | AGACTGGC | -0.124
31 | CTGTTGCA | -0.0202
32 | GCTATCTA | 0.0666
33 | ACCTCTTC | -0.00819
34 | AAAACGCC | 0.203
35 | GAGGGCCA | -0.269
36 | CGTTAAGC | -0.0403
37 | GGCTTACC | -0.127
38 | CTTCACTC | 0.067
39 | AAAACACT | 0.0901
40 | AGGCCTAC | -0.0603
41 | ATATCCTG | 0.0085
42 | CGGTTAAC | 0.116
43 | AACAGATT | 0.0933
44 | CGGGTTTC | -0.0743
45 | AAGCCGTG | 0.175
46 | CGGTATAA | -0.0252
47 | CATTGTGG | -0.0175
48 | ATTCATTA | 0.0801
49 | TCCCAGCA | -0.116
50 | CATCGTTA | -0.109

Row | Sequence | PBM E-score
51 | GACCTCAC | -0.243
52 | AAGCTGTC | -0.153
53 | GAGTCTGC | -0.186
54 | GAACGTAA | 0.214
55 | CCCTAACA | 0.129
56 | GTACTGGA | 0.211
57 | ACGTTGGA | 0.0278
58 | AGTCCCGC | -0.222
59 | CAGCCTTC | -0.278
60 | AGAACGTC | -0.115
61 | GATTCTCA | -0.0813
62 | CCAAGTAC | 0.00922
63 | AACGAGAT | -0.107
64 | AGGCCCTC | -0.0522
65 | AGGCATCG | 0.404
66 | AGGGACGC | -0.099
67 | ACCTGCGC | 0.117
68 | GCATTCAA | -0.138
69 | CCCTAATA | -0.188
70 | GCTGTTGA | 0.107
71 | CGATCACA | 0.128
72 | GAGACATA | 0.108
73 | GTGTGCAA | 0.128
74 | ACGATGAG | 0.104
75 | ACTAAAAA | 0.0245

Row | Sequence | PBM E-score
76 | GCCTTTTA | 0.335
77 | GATCTTCA | -0.118
78 | AATTAAGA | 0.0919
79 | GAGACCAA | -0.17
80 | CAATGACA | 0.135
81 | CTACAGCA | 0.0731
82 | ACTAGTAC | 0.00048
83 | CTAGACAG | -0.169
84 | CGTTCTAG | 0.0347
85 | CTCGAAAG | -0.057
86 | ACTCCCAA | -0.0157
87 | CATTAGAA | -0.0351
88 | ACTTACTC | 0.0234
89 | ACTATGAT | -0.0665
90 | ACATTAGC | 0.109
91 | GCACGGCC | 0.0373
92 | ATGGGACA | -0.152
93 | AATGATCG | -0.127
94 | ATTTATAG | 0.00853
95 | ACCACGAG | -0.197
96 | AGCTTGTC | -0.0925
97 | CGCCTCGC | -0.229
98 | CGCCCGTA | -0.0749
99 | CGGACGCA | -0.111
100 | ATATTACG | 0.296

Row | Sequence | PBM E-score
101 | CCACCCCA | 0.00669
102 | AATGGTAA | 0.0597
103 | CAAACTGA | -0.0656
104 | CGCCTGAG | -0.133
105 | GAAATAAA | 0.0179
106 | ACACACCT | 0.209
107 | CGACCGCG | -0.191
108 | CATAAGTA | -0.0467
109 | AAGAAACA | 0.19
110 | TACCACTA | -0.0713
111 | GGGCACCC | -0.0287
112 | ACCAGTAT | -0.154
113 | GAGGCCAA | -0.166
114 | CCGATTAC | 0.163
115 | AATTGAGA | -0.0846
116 | CAGGACAG | -0.199
117 | ATCAAATC | -0.0985
118 | CGGGAGGA | -0.143
119 | AGGGCAGG | 0.0389
120 | AGAATACA | 0.278
121 | GATGGCGA | -0.102
122 | CGTTTCAA | 0.0554
123 | ATTGGATA | -0.143
124 | TGCTAACA | 0.099
125 | AATATCGT | 0.149

Row | Sequence | PBM E-score
126 | GTAGACCA | 0.00217
127 | AAATTTCA | 0.0517
128 | ACTGGGTA | -0.189
129 | ATCTTATG | -0.0202
130 | ACCTGGCA | -2e-05
131 | ACAACATC | 0.195
132 | TATATTGA | -0.0227
133 | ATCCGATC | 0.00223
134 | GCTTATCA | -0.158
135 | AATAACGC | 0.217
136 | CTAAAAGA | -0.11
137 | CCTAAGTA | 0.164
138 | AACGGCCT | -0.267
139 | CCGGTGTA | 0.0449
140 | AGTTAGAA | -0.0798
141 | GGTGAACC | -0.167
142 | CTCGTGGC | -0.134
143 | CCCCGATA | -0.0851
144 | AGTCTATC | 0.00491
145 | CCCTTAAG | 0.194
146 | AGTGGCTG | -0.289
147 | AGGCCTGA | -0.288
148 | CACACTTA | 0.0972
149 | GCAACGTA | 0.113
150 | GAGGAGTA | -0.0693

Row | Sequence | PBM E-score
151 | AGCACTAT | 0.103
152 | CGATCCAA | -0.1
153 | ATCGAATG | -0.0374
154 | CTATGTAA | 0.41
155 | GGATCATA | -0.23
156 | TAGGTGGA | 0.094
157 | CCATATAG | -0.187
158 | AACTAGTT | 0.0146
159 | GTTCTCCA | -0.106
160 | CGACCAAA | 0.104
161 | CGTATGGA | -0.165
162 | AAATATAC | 0.0863
163 | CCAACTGG | -0.281
164 | ATTAACTA | 0.064
165 | ATACCGAC | -0.0192
166 | ACTCGTAC | -0.063
167 | GGCTAACA | 0.151
168 | GCTGAGTA | -0.066
169 | ATTAATGG | 0.103
170 | ATATACCA | -0.0571
171 | GTCAATCA | 0.0897
172 | AAATGTCT | -0.00895

— the supplement of paper PMC3334620
